In all, about 33,000 sequences were measured (“E-score (-0.5 to 0.5)”: median about -0.035, highest 2% from about 0.34 on). The list shows a part of the results.
Target: T1, Mot3 (UniProt P54785)
T1 sequence: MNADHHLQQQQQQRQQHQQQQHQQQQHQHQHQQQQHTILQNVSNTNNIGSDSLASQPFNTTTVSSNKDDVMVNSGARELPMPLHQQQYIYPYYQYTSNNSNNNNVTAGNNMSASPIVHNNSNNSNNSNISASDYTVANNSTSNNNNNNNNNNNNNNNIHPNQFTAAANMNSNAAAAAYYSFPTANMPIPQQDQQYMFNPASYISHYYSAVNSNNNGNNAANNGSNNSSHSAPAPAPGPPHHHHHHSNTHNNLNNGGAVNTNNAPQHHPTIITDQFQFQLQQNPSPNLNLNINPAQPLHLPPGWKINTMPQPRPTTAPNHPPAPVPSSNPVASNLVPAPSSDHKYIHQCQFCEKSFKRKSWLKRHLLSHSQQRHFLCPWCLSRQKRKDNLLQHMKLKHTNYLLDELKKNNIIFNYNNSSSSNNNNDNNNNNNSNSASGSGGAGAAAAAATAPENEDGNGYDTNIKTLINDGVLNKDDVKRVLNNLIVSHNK
Experiment: PBM E-score (8-mer binding enrichment) (E-score (-0.5 to 0.5)); higher = stronger / more preferred TF binding; most listed sequences are background and not binding sites
Details: protein concentration: 200 nM; construct: GST-full length
Method in brief: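 Full-length yeast transcription factors or their DNA-binding domains, GST-tagged and expressed with PURExpress, were applied at about 100-200 nM to universal all-10-mer Agilent arrays. These arrays had been made double-stranded by primer extension on fresh or once-stripped slides. Detection used fluorescent anti-GST, normalisation used masliner, and E-scores for ungapped eight-base words pooled with reverse complements came from the Universal PBM Analysis Suite.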

Row | Sequence | PBM E-score
1 | ACGACATA | 0.122
2 | AGCAGCGA | -0.113
3 | AACGTTGC | 0.157
4 | CTTAATCA | 0.00665
5 | GTAAGGGA | 0.145
6 | AAACGGGT | 0.0486
7 | GCAAACCC | -0.013
8 | CGCGGCAC | -0.154
9 | CACGAAGC | 0.0616
10 | ACTTGCCT | 0.479
11 | GTTTCCCA | -0.246
12 | GATGCGAC | -0.229
13 | AAAATTCC | 0.0292
14 | ATGACAAC | 0.117
15 | AAGCGACT | -0.168
16 | GCTCAACA | 0.158
17 | ACAGTCGT | -0.12
18 | GAACAGCA | -0.00296
19 | GTGGCGAA | 0.0447
20 | GAAACGTA | 0.111
21 | CCGAGGAC | -0.253
22 | AAGACTCT | -0.0129

Row | Sequence | PBM E-score
23 | GGTTGTCA | -0.00186
24 | AGGACCTC | -0.128
25 | TGCATAAA | 0.172
26 | CCGACTTC | -0.155
27 | GCATTTGA | 0.0576
28 | AGTTCCGA | -0.142
29 | ACTTCGTC | -0.192
30 | ACGGGGTA | 0.0158
31 | ACTTAAGA | -0.0379
32 | CCGTTTGA | -0.197
33 | CCGTCTGA | -0.112
34 | ACAATAGC | 0.0585
35 | GTGCGGCA | -0.217
36 | GGAGAGCC | -0.151
37 | AACGTGTC | 0.273
38 | GAGGGAAC | -0.0395
39 | GAGGTAAA | 0.0852
40 | ACGGTATA | -0.0946
41 | CCGTAACG | -0.0486
42 | TCAGGAGA | -0.0813
43 | GGAACAAC | 0.229
44 | ATCCTGCC | -0.0886

Row | Sequence | PBM E-score
45 | ACGTTGGG | -0.0423
46 | GCTTACAC | 0.178
47 | CCGCTCAC | -0.322
48 | CCATGAAG | -0.233
49 | ATAGACGA | -0.0249
50 | CTACAACA | 0.172
51 | ACTATTGC | 0.00783
52 | AAGTGAAA | -0.0272
53 | GCGCACTA | -0.199
54 | GCGCGCCC | -0.276
55 | CTGGCGGA | -0.124
56 | CGATGACA | 0.0888
57 | GAAACATA | 0.211
58 | AGGATGTC | 0.107
59 | ATCAGCTA | -0.0497
60 | AGTTCAGA | -0.141
61 | AGGACCTG | -0.201
62 | CGCTCACA | -0.0625
63 | CTAGCCCA | -0.216
64 | ATCCGTAA | -0.11
65 | CAGGAATG | -0.0291
66 | CGTGGAGC | -0.18

Row | Sequence | PBM E-score
67 | TTAAATAA | 0.111
68 | TCGCGCAA | -0.0049
69 | ACAAGGCG | 0.109
70 | TGAGTAAA | 0.229
71 | GGATAGGA | -0.0985
72 | ACTTGGAT | 0.0576
73 | GAGCAGAA | -0.182
74 | CGCGCCTA | 0.303
75 | AGGCGGCA | 0.0359
76 | CCTAAGAC | -0.106
77 | CATGGTCG | -0.0196
78 | GGCAACCC | 0.14
79 | AGATGTCG | -0.0342
80 | ACCCGCGA | 0.0237
81 | AACTCGGG | -0.162
82 | GAAATGGA | 0.00318
83 | ACTATGCT | -0.0241
84 | AGTTGTCG | -0.0388
85 | AACACATT | 0.194
86 | CAACACTA | 0.105
